From ChEMBL document CHEMBL4888484, “Replenishing the malaria drug discovery pipeline: Screening and hit evaluation of the MMV Hit Generation Library 1 (HGL1) against asexual blood stage Plasmodium falciparum ,using a nano luciferase reporter read-out” (2022)
Among all 150,000 compounds or so, about 540 (0.36%) showed an effect of 50% or more. The list shows a part of the results.

tested on: Plasmodium falciparum; test: Primary screen in NF54 nanoGlo assay, in single point, at 2uM, 72h; a lower Z score goes with more inhibition; type: functional, Erythrocyte; conditions: timepoint 72 hour

Compound	% Inhibition [%]	Z score
Cc1ccc([C@H]2N(c3ccc(Cl)c(Cl)c3)C(=O)[C@@H]3CCCN32)o1	-3	0.39
Cc1cc(NC(=O)c2ccc(F)c(Cl)c2)nc(=O)[nH]1	-6	0.57
CCc1nsc(N2CC3CCCC3C2)n1 (stereo not drawn)	-2	0.31
CC(=O)N[C@@H]1CN(C(=O)c2c[nH]nc2-c2ccc(C)cc2C)C[C@H]1CO	-7	1.12
CC1CN(c2ccc(C#N)c(N)n2)CC(C2CC2)O1 (stereo not drawn)	-3	0.56
CC(C)(CO)NC(=O)OCc1ccccc1	-10	1.31
O=C(NCCCOC1CCCC1)c1ccc2nc(C(F)(F)F)cn2c1	-11	1.72
CC(C)=CCN1C(=O)[C@@H]2CC[C@H]1CN(C(=O)c1ccc3[nH]nnc3c1)C2	-2	0.48
Cc1ccc(CN(Cc2ccccn2)C(=O)[C@@H]2CCC(=O)NC(=O)N2)s1	1	-0.12
CCOc1ccccc1CN1CCC(CC2CC2)(NS(C)(=O)=O)CC1	-4	0.77
CCCCNC(=O)NCCc1c[nH]c2ncccc12	0	-0.04
CC(C)c1ccc([C@H](C)NC(=O)C(=O)Nc2cnc3ccccc3c2)cc1	-4	0.59
Oc1cc(-c2ccc(F)cc2)nn1-c1nc2ccccc2[nH]1	36	-4.09
CNC(=O)NC(=O)CNC(C)(C)Cc1ccc(C(F)(F)F)cc1	-6	0.72
CCCC1(CCC)NC(=O)N(CC(=O)Nc2ccc3c(c2)OCCO3)C1=O	-18	3.18
CC(C)(C)C(=O)NCc1ccc(-c2ccoc2)o1	6	-0.82
COc1ccc(C(=O)N2CC(S(=O)(=O)N3CCc4ccccc43)C2)cn1	-10	1.27
O=C(O)C1C2C=CC(C2)C1C(=O)Nc1nc2ccccc2s1 (stereo not drawn)	-20	2.56
CC(C)NC(=O)N(Cc1c(C(C)C)nn(-c2ccccc2)c1Oc1ccccc1F)CC1CC1	-14	1.3
COc1cc(C)c(S(=O)(=O)N2CCOCC(F)(F)C2)cc1Cl	-1	0.1
CC(C)(C)OC(=O)N1CC(NC(=O)c2ccoc2C2CC2)(C(N)=O)C1	-2	0.22

Compound	% Inhibition [%]	Z score
O=C(NCc1cccnc1)c1coc(CN(Cc2ccc(F)cc2)Cc2ccc(Cl)cc2Cl)n1	-33	2.9
NC(=O)Cc1nc(Cn2cnnn2)n(-c2ccc3c(c2)OCO3)n1	8	-1.27
CCCOCCN1CCN(c2ncnc3oc(C)nc23)CC1	-5	0.73
CNC(=O)[C@@H]1C[C@H](Oc2cccnc2)CN1C(=O)c1cccc(C#N)c1	-7	0.86
CCS(=O)(=O)Cc1ccc(NC(=O)N[C@H]2CCCN(C)C2=O)cc1	-8	1.31
CCc1noc(-c2ccc(=O)n(CC(=O)Nc3ccc(C)c(C)c3)c2)n1	2	-0.34
Cc1ccc(C(=O)N2CCCC(C(=O)N3CCCC(c4nnc5ccccn45)C3)C2)cc1 (stereo not drawn)	-7	1.13
O=C(CCOc1ccccc1)N1CCOC[C@@H](O)C1	-31	2.85
COc1ccccc1CCN1Cc2cc(NC(=O)c3ccc(F)cc3)ccc2O[C@@H](C)C1=O	10	-1.09
CCC(NC(=O)N1CCS(=O)(=O)CC1C)c1cccc(Cl)c1 (stereo not drawn)	0	-0.08
O=C(Nc1cn[nH]c1)c1cc(Br)c[nH]1	-26	2.4
O=C(C[C@H](c1ccc(F)cc1)c1cn(Cc2ccccc2)c2ccccc12)N1CCCC1	-7	0.68
COCC(=O)NC1CCN(c2nc(-c3cccnc3)cs2)CC1	6	-1.16
CC[C@@H](CNC(=O)N(C)Cc1c(C)noc1C)N1CCCC1	-13	2.45
CCN(CC)c1ccc(C(=O)Nc2cc(C(=O)Nc3ccccc3F)ccc2N2CC3CC(C2)c2cccc(=O)n2C3)cc1 (stereo not drawn)	11	-1.26
C[C@]1(C(=O)O)CCN(C(=O)c2ccccc2OCC2CC2)C1	-2	0.31
COc1c(C)cc(C(=O)[C@H]2CCCN(CC(=O)Nc3cc(C)on3)C2)cc1C	6	-0.88
Cc1cccc(S(=O)(=O)Nc2nc(C(F)(F)F)c[nH]2)c1Br	18	-2.53
Cc1noc2ncc(C(=O)N3CCc4sccc4[C@@H]3C)cc12	3	-0.52
N#CCC(=O)NCCOc1cncc(Cl)c1	-1	0.17
Cc1ccc(-c2nccn2CCCNc2cccnc2)o1	-14	2.73

Compound	% Inhibition [%]	Z score
CC(C)CN(Cc1cccnc1)C1CN(C(=O)c2ccnn2C)C1	-4	0.74
CCc1nnc(-c2cccn2CC(=O)NCc2ccccc2)o1	-8	1.27
Cc1cc(C)c(CNC(=O)N(C)Cc2cscn2)c(=O)[nH]1	2	-0.16
CCc1ccc(-c2cc3c(=O)n(Cc4noc(CN5CCCC5)n4)ccn3n2)cc1	1	-0.1
CC1C(=O)N(CC(=O)N(C2CC2)C(C)C2CC2)C(=O)C1C (stereo not drawn)	-2	0.39
COc1ccc(CNC(=O)C[C@@H]2C[C@H]3O[C@H](CNCc4ccccc4C(F)(F)F)[C@@H](O)[C@H]3O2)cc1	2	-0.22
CN(CC1CCCCC1O)C(=O)NCCc1cccc2cccnc12 (stereo not drawn)	-16	3.1
Cc1cc(F)ccc1NC(=O)CCc1c(C)nn(-c2cc(N(C)C)ncn2)c1C	-5	1.01
Cc1[nH]c2c3c(F)cccc3nn2c(=O)c1CCC(=O)NCc1cccn1C	-16	2.29
Nc1nc2n(c1C(=O)c1ccc3c(c1)OCO3)CCC2	14	-1.4
O=C(NC[C@@H](O)CCc1ccccc1)c1coc(Br)c1	4	-0.48
O=C(N[C@H]1CCN(Cc2nc3c(s2)CCCC3)C[C@@H]1O)c1cnccn1	-9	1.77
O=C(c1ccccc1Oc1ccccc1)N1CCN(S(=O)(=O)c2ccccc2)CC1	-3	0.55
Cc1[nH]cnc1CNC(=O)c1ccc2ccccc2n1	-14	1.95
CO[C@H]1C[C@@H](O)C12CCN(C(=O)c1cccc(CO)n1)CC2	-9	1.57
Cc1nc(CS(=O)(=O)CCCC(C)C)no1	-6	1.09
CCOC(=O)CN(C(=O)c1cncc(F)c1)C(C)(C)C	-15	1.59
N#Cc1cccnc1NCCOC(=O)c1cccc(-n2cnnn2)c1	-11	1.46
O=C(Cn1nnc2ccccc21)N1CCc2ccccc21	5	-0.84
Fc1cccc(OCCN2CCCN3CCC[C@H]3C2)c1	-9	1.15
COCCN(Cc1ccoc1)C(=O)NC1CCCC1	-2	0.37

Compound	% Inhibition [%]	Z score
CC(C)N(C(=O)[C@H](C)c1ccnn1C)C1CCCCC1	1	-0.16
Cc1cc(C)cc(CN2C(=O)C[C@H](Cc3cnn(C)c3)C2=O)c1	-9	0.96
Cc1cc(C(=O)NC2CCN(C(=O)c3cc(F)cnc3O)CC2)c(C)o1	-10	1.33
CCOC1CCN(C(=O)CCCN2CCCCC2=O)CC1	0	-0.03
Cn1ccc(C(=O)N2CCc3[nH]c(C4CCCCC4)nc3C2)cc1=O	13	-1.52
CCC(C)CN1C(=O)C(C)NC12CCN(C(=O)c1ccc(OC)cc1)CC2 (stereo not drawn)	-15	2.2
COc1cccc(NC(=O)Nc2cc(C)ccc2N2CCCN(Cc3ccc(Cl)c(Cl)c3)C2=O)c1	0	0.05
COc1cc(Cc2nc(-c3ccc4nnn(C(C)C)c4c3)no2)cc(OC)c1	-18	1.9
O=C(N[C@H]1C[C@H]2C(=O)N3CCC[C@@H]3C(=O)N2C1)c1ccc(Br)cc1	-18	2.05
O=C(NCCCn1cncn1)c1cnc(Cc2c(Cl)cccc2Cl)nc1O	-4	0.51
Cc1cc(F)cc(C(=O)N(CC(F)(F)F)[C@@H](C)C(C)C)c1	-3	0.24
Cc1noc(C(C)(C)NCc2ccc(OCCN3CCOCC3)c(Cl)c2)n1	-10	1.84
NC(=O)C1CCCCC1NCc1ccsc1 (stereo not drawn)	1	-0.19
Cc1ccccc1OCCNC(=O)N1CCC[C@H](N(C)C)CC1	4	-0.57
O=C(O)c1cc(C2CC2)n2nc(-c3ccccc3)cc2n1	-4	0.52
Cc1cccc(C)c1OCC(O)CN1CCCCC1Cn1cncn1 (stereo not drawn)	1	-0.21
Cc1ccc(CNC(=O)c2cc3n(n2)C[C@@](C)(C(=O)NC2CCCCCC2)N(C)C3=O)cc1	10	-1.14
Cc1ccc(C)c(C2CN(CCn3c(C)csc3=O)C(C)CO2)c1 (stereo not drawn)	-4	0.55
O=C(NCCCN1CCOCC1)c1cc2n(n1)CCN(Cc1ccccc1Cl)C2=O	-20	3.65
COCCCn1cnnc1CNS(=O)(=O)c1c(C)cc(C)c2nonc12	-4	0.48
O=C(CCC1CCN(C/C=C/c2ccc(F)cc2)CC1)N1CCOCC1	-27	2.39
